Experimental data published in the supplement of paper PMC8728848.
The other results are listed elsewhere or left out.

Legend:
Test in all cases: glycan array binding signal (z-score within array); higher = stronger binding
Details in all cases: glycan notation: IUPAC condensed, linker removed
[1] = biological target: Fuc(a1-3)[Gal(b1-4)]GlcNAc6S
Procedure, shortened: (§1)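 Columns mapping to the same glycan were averaged after glycan names were converted to IUPAC-condensed notation. The data come from 3228 arrays in the Consortium for Functional Glycomics database, limited to those with an available protein sequence. Binding is reported as a within-array Z-score averaged across arrays of one protein sequence and across linkers.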

[2] = biological target: Fuc(a1-3)[Gal3S(b1-4)]Glc6S
Procedure, shortened: as §1

[3] = biological target: Fuc(a1-3)[Gal3S(b1-4)]GlcNAc
Procedure, shortened: as §1

[4] = biological target: Fuc(a1-3)[Gal3S(b1-4)]GlcNAc6S
Procedure, shortened: as §1

[5] = biological target: Fuc(a1-3)[GalNAc(b1-4)]GlcNAc
Procedure, shortened: as §1

Fuc(a1-4)GlcNAc = biological target: Fuc(a1-4)GlcNAc
Procedure, shortened: as §1

Fuc(b1-3)GlcNAc = biological target: Fuc(b1-3)GlcNAc
Procedure, shortened: as §1

Gal(a1-2)Gal = biological target: Gal(a1-2)Gal
Procedure, shortened: as §1

Gal(a1-3)Gal = biological target: Gal(a1-3)Gal
Procedure, shortened: as §1

Gal(a1-3)Gal(b1-3)GlcNAc = biological target: Gal(a1-3)Gal(b1-3)GlcNAc
Procedure, shortened: as §1

[6] = biological target: Gal(a1-3)Gal(b1-3)GlcNAc(b1-2)Man(a1-3)[Gal(a1-3)Gal(b1-3)GlcNAc(b1-2)Man(a1-6)]Man(b1-4)GlcNAc(b1-4)GlcNAc
Procedure, shortened: as §1

[7] = biological target: Gal(a1-3)Gal(b1-3)[Fuc(a1-4)]GlcNAc(b1-2)Man(a1-3)[Gal(a1-3)Gal(b1-3)[Fuc(a1-4)]GlcNAc(b1-2)Man(a1-6)]Man(b1-4)GlcNAc(b1-4)GlcNAc
Procedure, shortened: as §1

Gal(a1-3)Gal(b1-4)Glc = biological target: Gal(a1-3)Gal(b1-4)Glc
Procedure, shortened: as §1

Gal(a1-3)Gal(b1-4)GlcNAc = biological target: Gal(a1-3)Gal(b1-4)GlcNAc
Procedure, shortened: as §1

[8] = biological target: Gal(a1-3)Gal(b1-4)GlcNAc(b1-3)GalNAc
Procedure, shortened: as §1

[9] = biological target: Gal(a1-3)Gal(b1-4)[Fuc(a1-3)]GlcNAc
Procedure, shortened: as §1

[10] = biological target: Gal(a1-3)Gal(b1-4)[Fuc(a1-3)]GlcNAc(b1-2)Man(a1-3)[Gal(a1-3)Gal(b1-4)[Fuc(a1-3)]GlcNAc(b1-2)Man(a1-6)]Man(b1-4)GlcNAc(b1-4)GlcNAc
Procedure, shortened: as §1

Gal(a1-3)GalNAc = biological target: Gal(a1-3)GalNAc
Procedure, shortened: as §1

[11] = biological target: Gal(a1-3)[Gal(a1-4)]Gal(b1-4)GlcNAc
Procedure, shortened: as §1

[12] = biological target: Gal(a1-4)Gal(b1-3)GlcNAc(b1-2)Man(a1-3)[Gal(a1-4)Gal(b1-3)GlcNAc(b1-2)Man(a1-6)]Man(b1-4)GlcNAc(b1-4)GlcNAc
Procedure, shortened: as §1

Gal(a1-4)Gal(b1-4)Glc = biological target: Gal(a1-4)Gal(b1-4)Glc
Procedure, shortened: as §1

Gal(a1-4)Gal(b1-4)GlcNAc = biological target: Gal(a1-4)Gal(b1-4)GlcNAc
Procedure, shortened: as §1

[13] = biological target: Gal(a1-4)Gal(b1-4)GlcNAc(b1-2)Man(a1-3)[Gal(a1-4)Gal(b1-4)GlcNAc(b1-2)Man(a1-6)]Man(b1-4)GlcNAc(b1-4)GlcNAc
Procedure, shortened: as §1

[14] = biological target: Gal(a1-4)Gal(b1-4)GlcNAc(b1-3)Gal(b1-4)Glc
Procedure, shortened: as §1

Gal(a1-4)GlcNAc = biological target: Gal(a1-4)GlcNAc
Procedure, shortened: as §1

Gal(a1-6)Glc = biological target: Gal(a1-6)Glc
Procedure, shortened: as §1

Gal(b1-2)Gal = biological target: Gal(b1-2)Gal
Procedure, shortened: as §1

Gal(b1-3)Gal = biological target: Gal(b1-3)Gal
Procedure, shortened: as §1

Gal(b1-3)Gal(b1-4)GlcNAc = biological target: Gal(b1-3)Gal(b1-4)GlcNAc
Procedure, shortened: as §1

[15] = biological target: Gal(b1-3)Gal(b1-4)GlcNAc(b1-2)Man(a1-3)[Gal(b1-3)Gal(b1-4)GlcNAc(b1-2)Man(a1-6)]Man(b1-4)GlcNAc(b1-4)GlcNAc
Procedure, shortened: as §1

Gal(b1-3)GalNAc = biological target: Gal(b1-3)GalNAc
Procedure, shortened: as §1

[16] = biological target: Gal(b1-3)GalNAc(a1-3)[Fuc(a1-2)]Gal(b1-4)Glc
Procedure, shortened: as §1

[17] = biological target: Gal(b1-3)GalNAc(a1-3)[Fuc(a1-2)]Gal(b1-4)GlcNAc
Procedure, shortened: as §1

[18] = biological target: Gal(b1-3)GalNAc(b1-3)Gal(a1-4)Gal(b1-4)Glc
Procedure, shortened: as §1

[19] = biological target: Gal(b1-3)GalNAc(b1-4)Gal(b1-4)Glc
Procedure, shortened: as §1

[20] = biological target: Gal(b1-3)GalNAc(b1-4)[Neu5Ac(a2-3)]Gal(b1-4)Glc
Procedure, shortened: as §1

Gal(b1-3)GlcNAc = biological target: Gal(b1-3)GlcNAc
Procedure, shortened: as §1

[21] = biological target: Gal(b1-3)GlcNAc(a1-6)Gal(b1-4)GlcNAc
Procedure, shortened: as §1

[22] = biological target: Gal(b1-3)GlcNAc(b1-2)Man(a1-3)[Gal(b1-3)GlcNAc(b1-2)Man(a1-6)]Man(b1-4)GlcNAc(b1-4)GlcNAc
Procedure, shortened: as §1

[23] = biological target: Gal(b1-3)GlcNAc(b1-2)Man(a1-3)[Gal(b1-3)GlcNAc(b1-2)Man(a1-6)]Man(b1-4)GlcNAc(b1-4)[Fuc(a1-6)]GlcNAc
Procedure, shortened: as §1

[24] = biological target: Gal(b1-3)GlcNAc(b1-3)Gal(b1-3)GlcNAc
Procedure, shortened: as §1

[25] = biological target: Gal(b1-3)GlcNAc(b1-3)Gal(b1-4)Glc
Procedure, shortened: as §1

[26] = biological target: Gal(b1-3)GlcNAc(b1-3)Gal(b1-4)GlcNAc
Procedure, shortened: as §1

[27] = biological target: Gal(b1-3)GlcNAc(b1-3)Gal(b1-4)GlcNAc(b1-6)[Gal(b1-3)GlcNAc(b1-3)]Gal(b1-4)Glc
Procedure, shortened: as §1

[28] = biological target: Gal(b1-3)GlcNAc(b1-3)Gal(b1-4)[Fuc(a1-3)]GlcNAc(b1-6)[Gal(b1-3)GlcNAc(b1-3)]Gal(b1-4)Glc
Procedure, shortened: as §1

B1: Tachylectin-2 (Tachypleus tridentatus), TAL2_TACTR (protein)
chain: VGGESMLRGVYQDKFYQGTYPQNKNDNWLARATLIGKGGWSNFKFLFLSPGGELYGVLNDKIYKGTPPTHDNDNWMGRAKKIGNGGWNQFQFLFFDPNGYLYAVSKDKLYKASPPQSDTDNWIARATEIGSGGWSGFKFLFFHPNGYLYAVHGQQFYKALPPVSNQDNWLARATKIGQGGWDTFKFLFFSSVGTLFGVQGGKFYEDYPPSYAHDNWLARAKLIGNGGWDDFRFLFF
glycan array binding signal (z-score) [1]: -0.31 | glycan array binding signal (z-score) [2]: -0.082 | glycan array binding signal (z-score) [3]: -0.337 | glycan array binding signal (z-score) [4]: -0.287 | glycan array binding signal (z-score) [5]: -0.106 | glycan array binding signal (z-score) (Fuc(a1-4)GlcNAc): -0.328 | glycan array binding signal (z-score) (Fuc(b1-3)GlcNAc): -0.243 | glycan array binding signal (z-score) (Gal(a1-2)Gal): -0.296 | glycan array binding signal (z-score) (Gal(a1-3)Gal): -0.313 | glycan array binding signal (z-score) (Gal(a1-3)Gal(b1-3)GlcNAc): -0.271 | glycan array binding signal (z-score) [6]: -0.29 | glycan array binding signal (z-score) [7]: -0.297 | glycan array binding signal (z-score) (Gal(a1-3)Gal(b1-4)Glc): -0.301 | glycan array binding signal (z-score) (Gal(a1-3)Gal(b1-4)GlcNAc): -0.091 | glycan array binding signal (z-score) [8]: -0.289 | glycan array binding signal (z-score) [9]: -0.066 | glycan array binding signal (z-score) [10]: -0.291 | glycan array binding signal (z-score) (Gal(a1-3)GalNAc): -0.304 | glycan array binding signal (z-score) [11]: -0.15 | glycan array binding signal (z-score) [12]: -0.292 | glycan array binding signal (z-score) (Gal(a1-4)Gal(b1-4)Glc): -0.324 | glycan array binding signal (z-score) (Gal(a1-4)Gal(b1-4)GlcNAc): -0.344 | glycan array binding signal (z-score) [13]: -0.29 | glycan array binding signal (z-score) [14]: -0.296 | glycan array binding signal (z-score) (Gal(a1-4)GlcNAc): 0.001 | glycan array binding signal (z-score) (Gal(a1-6)Glc): -0.265 | glycan array binding signal (z-score) (Gal(b1-2)Gal): -0.365 | glycan array binding signal (z-score) (Gal(b1-3)Gal): -0.284 | glycan array binding signal (z-score) (Gal(b1-3)Gal(b1-4)GlcNAc): -0.295 | glycan array binding signal (z-score) [15]: -0.291 | glycan array binding signal (z-score) (Gal(b1-3)GalNAc): -0.325 | glycan array binding signal (z-score) [16]: -0.293 | glycan array binding signal (z-score) [17]: -0.294 | glycan array binding signal (z-score) [18]: -0.286 | glycan array binding signal (z-score) [19]: -0.207 | glycan array binding signal (z-score) [20]: -0.324 | glycan array binding signal (z-score) (Gal(b1-3)GlcNAc): -0.244 | glycan array binding signal (z-score) [21]: -0.297 | glycan array binding signal (z-score) [22]: -0.325 | glycan array binding signal (z-score) [23]: -0.286 | glycan array binding signal (z-score) [24]: -0.341 | glycan array binding signal (z-score) [25]: -0.315 | glycan array binding signal (z-score) [26]: -0.357 | glycan array binding signal (z-score) [27]: -0.293 | glycan array binding signal (z-score) [28]: -0.294
